Test results from the supplement of paper PMC4604168 (melanoma cell lines).
Some of the results follow. Repeats are few or missing, and single values can be far off.

Key:
Test in all cases: cell count relative to DMSO control; melanoma cells; higher = more viable cells
Conditions in all cases: library dose: low library concentration; 72 h
MZ2-MEL = test system: MZ2-MEL
MeWo = test system: MeWo
RPMI7951 = test system: RPMI7951
RVH-421 = test system: RVH-421
SkMel28 = test system: SkMel28
SkMel2 = test system: SkMel2
SkMel30 = test system: SkMel30
SkMel5 = test system: SkMel5
UACC257 = test system: UACC257
UACC62 = test system: UACC62
WM115 = test system: WM115
WM1716 = test system: WM1716
WM1745 = test system: WM1745
WM3526 = test system: WM3526
WM3619 = test system: WM3619
WM451Lu = test system: WM451Lu
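Further: cell number obtained by counting DAPI-stained nuclei in high-throughput microscope images with image analysis software, screen run in 1,536-well plates.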

Row | Structure (SMILES) | cell count (MZ2-MEL) | cell count (MeWo) | cell count (RPMI7951) | cell count (RVH-421) | cell count (SkMel28) | cell count (SkMel2) | cell count (SkMel30) | cell count (SkMel5) | cell count (UACC257) | cell count (UACC62) | cell count (WM115) | cell count (WM1716) | cell count (WM1745) | cell count (WM3526) | cell count (WM3619) | cell count (WM451Lu)
1 | Nc1ccn([C@@H]2O[C@H](CO)[C@@H](O)C2(F)F)c(=O)n1 [gemcitabine] + CO[C@@H]1[C@H](N(C)C(=O)c2ccccc2)C[C@H]2O[C@]1(C)n1c3ccccc3c3c4c(c5c6ccccc6n2c5c31)C(=O)NC4 [Midostaurin] (first compound 0.0004 µM, partner dose 0.08 µM) | 103% | 90% | 88.5% | 118% | 104% | 92.5% | 123% | 99.4% | 77.2% | 99.8% | 86.3% | 71.8% | 67.1% | 106% | 59.7% | 114%
2 | CC(=O)O[C@@]12CO[C@@H]1C[C@H](O)[C@@]1(C)C(=O)[C@H](O)C3=C(C)[C@@H](OC(=O)[C@H](O)[C@@H](NC(=O)OC(C)(C)C)c4ccccc4)C[C@@](O)([C@@H](OC(=O)c4ccccc4)[C@H]21)C3(C)C [Docetaxel] + COc1ccc(COc2ccc(Cc3cnc(N)nc3N)cc2OC)cc1 [GW2580] (first compound 0.0001 µM, partner dose 1 µM) | 51.7% | 37.2% | 41.8% | 64.8% | 37.6% | 33.8% | 26.6% | 58.2% | 33.6% | 42.6% | 57.8% | 31.8% | 26% | 24.8% | 43.2% | 40.9%
3 | CC(=O)c1c(C)c2cnc(Nc3ccc(N4CCNCC4)cn3)nc2n(C2CCCC2)c1=O [palbociclib] + O=C(O)c1ccc(-c2c[nH]c3ncc(-c4ccccc4)cc23)cc1C1CCCC1 [GSK650394] (first compound 0.04 µM, partner dose 0.16 µM) | 70% | 81% | 91.8% | 102% | 68% | 79.5% | 92% | 65.7% | 67.4% | 72.9% | 78.1% | 57.6% | 77.7% | 74.8% | 86.9% | 66.6%
4 | Nc1nc(F)nc2c1ncn2[C@@H]1O[C@H](CO)[C@@H](O)[C@@H]1O [fludarabine] + O=c1cc(-c2cccc3c2Sc2ccccc2S3)oc(N2CCOCC2)c1 [KU55933] (first compound 0.2 µM, partner dose 1 µM) | 107% | 36.6% | 83.3% | 116% | 91.5% | 7.02% | 22.5% | 68.3% | 94.6% | 85.8% | 108% | 99.2% | 102% | 24.8% | 80.7% | 37.9%
5 | CC(=O)O[C@@]12CO[C@@H]1C[C@H](O)[C@@]1(C)C(=O)[C@H](O)C3=C(C)[C@@H](OC(=O)[C@H](O)[C@@H](NC(=O)OC(C)(C)C)c4ccccc4)C[C@@](O)([C@@H](OC(=O)c4ccccc4)[C@H]21)C3(C)C [Docetaxel] + NCC(=O)Nc1ccc(-n2nc(C(F)(F)F)cc2-c2ccc3c(ccc4ccccc43)c2)cc1 [OSU03012] (first compound 0.0001 µM, partner dose 1 µM) | 55% | 51.3% | 40.3% | 64.9% | 27.2% | 37.6% | 37.2% | 70.1% | 55.5% | 36.4% | 60.5% | 41.9% | 60.2% | 46.7% | 69.6% | 53.3%
6 | CC(=O)O[C@@]12CO[C@@H]1C[C@H](O)[C@@]1(C)C(=O)[C@H](O)C3=C(C)[C@@H](OC(=O)[C@H](O)[C@@H](NC(=O)OC(C)(C)C)c4ccccc4)C[C@@](O)([C@@H](OC(=O)c4ccccc4)[C@H]21)C3(C)C [Docetaxel] + COc1cc2c(Oc3ccc4[nH]c(C)cc4c3F)ncnc2cc1OCCCN1CCCC1 [cediranib] (first compound 0.0001 µM, partner dose 0.4 µM) | 53.3% | 46.8% | 37.6% | 66.3% | 29.4% | 45.8% | 34.9% | 83.5% | 40.3% | 45.9% | 65.7% | 36% | 47.2% | 52.6% | 64.3% | 54.6%
7 | CC(=O)O[C@@]12CO[C@@H]1C[C@H](O)[C@@]1(C)C(=O)[C@H](O)C3=C(C)[C@@H](OC(=O)[C@H](O)[C@@H](NC(=O)OC(C)(C)C)c4ccccc4)C[C@@](O)([C@@H](OC(=O)c4ccccc4)[C@H]21)C3(C)C [Docetaxel] + CO[C@@H]1[C@H](N(C)C(=O)c2ccccc2)C[C@H]2O[C@]1(C)n1c3ccccc3c3c4c(c5c6ccccc6n2c5c31)C(=O)NC4 [Midostaurin] (first compound 0.0001 µM, partner dose 0.08 µM) | 41.2% | 29.7% | 30.1% | 54.7% | 35% | 43% | 40.2% | 63.9% | 29.6% | 43.2% | 45.2% | 23.3% | 33.2% | 31.5% | 64.1% | 51.2%
8 | Nc1ccn([C@@H]2O[C@H](CO)[C@@H](O)C2(F)F)c(=O)n1 [gemcitabine] + CCN(CC)CCCCNc1ncc2cc(-c3cc(OC)cc(OC)c3)c(NC(=O)NC(C)(C)C)nc2n1 [PD173074] (first compound 0.0004 µM, partner dose 0.1 µM) | 98% | 97.8% | 103% | 92% | 108% | 94.4% | 104% | 102% | 111% | 89.5% | 96.5% | 114% | 88.5% | 86.5% | 72.3% | 104%
9 | Nc1ccn([C@@H]2O[C@H](CO)[C@@H](O)C2(F)F)c(=O)n1 [gemcitabine] + O=S(=O)(c1ccccc1)N(CC(F)(F)F)c1ccc(C(O)(C(F)(F)F)C(F)(F)F)cc1 [T0901317] (first compound 0.0004 µM, partner dose 1.4 µM) | 84% | 92% | 87% | 109% | 94.1% | 94.2% | 91.4% | 92.3% | 94.6% | 102% | 81.6% | 85.7% | 60.9% | 76% | 70.3% | 63.7%
10 | Nc1ccn([C@@H]2O[C@H](CO)[C@@H](O)C2(F)F)c(=O)n1 [gemcitabine] + COc1ccc(-c2ccc3c(N4CCOCC4)nc(N4C[C@@H](C)O[C@@H](C)C4)nc3n2)cc1CO [KU0063794] (first compound 0.0004 µM, partner dose 0.02 µM) | 88.8% | 93.2% | 81.7% | 94.7% | 110% | 102% | 95.1% | 102% | 96.7% | 105% | 91.1% | 85.3% | 57.6% | 87.9% | 66.7% | 103%
11 | Nc1ncn([C@H]2C[C@H](O)[C@@H](CO)O2)c(=O)n1 [decitabine] + OCCn1cc(-c2cnc3nnn(Cc4ccc5ncccc5c4)c3n2)cn1 [PF04217903] (first compound 0.1 µM, partner dose 1 µM) | 87.1% | 111% | 83.1% | 91.2% | 92.7% | 93.3% | 124% | 103% | 94.8% | 75.8% | 88.2% | 78.2% | 133% | 107% | 142% | 117%
12 | Nc1ccn([C@@H]2O[C@H](CO)[C@@H](O)C2(F)F)c(=O)n1 [gemcitabine] + O=C(O)C(=O)Nc1sc2c(c1C(=O)O)CCNC2 [TCS401] (first compound 0.0004 µM, partner dose 1.66667 µM) | 95.3% | 98.7% | 95.5% | 18.6% | 107% | 112% | 86.9% | 97.6% | 88.8% | 87.7% | 96.1% | 104% | 71% | 82.6% | 85.8% | 106%
13 | Nc1ncn([C@H]2C[C@H](O)[C@@H](CO)O2)c(=O)n1 [decitabine] + NC(=O)Nc1cc(-c2cccc(F)c2)sc1C(=O)N[C@H]1CCCNC1 [AZD7762] (first compound 0.1 µM, partner dose 0.02 µM) | 93.1% | 86.2% | 83% | 107% | 96.1% | 116% | 149% | 110% | 121% | 92.5% | 71.6% | 74.2% | 89.5% | 89.4% | 60.2% | 89.6%
14 | Nc1ccn([C@@H]2O[C@H](CO)[C@@H](O)C2(F)F)c(=O)n1 [gemcitabine] + OCCn1cc(-c2cnc3nnn(Cc4ccc5ncccc5c4)c3n2)cn1 [PF04217903] (first compound 0.0004 µM, partner dose 1 µM) | 88.6% | 100% | 76.6% | 74.6% | 95% | 101% | 98.5% | 103% | 103% | 90% | 86.9% | 90% | 52.4% | 81.2% | 65.7% | 76%
15 | CC(=O)c1c(C)c2cnc(Nc3ccc(N4CCNCC4)cn3)nc2n(C2CCCC2)c1=O [palbociclib] + NC(=O)Nc1cc(-c2cccc(F)c2)sc1C(=O)N[C@H]1CCCNC1 [AZD7762] (first compound 0.04 µM, partner dose 0.02 µM) | 88.8% | 74.9% | 62.5% | 91% | 92.4% | 96.7% | 77.5% | 78.6% | 79.7% | 87.7% | 71.1% | 55.5% | 76.7% | 45.9% | 68.2% | 63.4%
16 | Nc1ncn([C@H]2C[C@H](O)[C@@H](CO)O2)c(=O)n1 [decitabine] + O=c1cc(-c2cccc3c2Sc2ccccc2S3)oc(N2CCOCC2)c1 [KU55933] (first compound 0.1 µM, partner dose 1 µM) | 82% | 101% | 75.7% | 104% | 85.4% | 90.6% | 92.9% | 106% | 82.1% | 61.1% | 77.9% | 94.8% | 110% | 87.7% | 113% | 99.5%
